Reference: PubChem BioAssay AID485313 (National Center for Advancing Translational Sciences (NCATS), 2010)
The campaign covered roughly 320,000 compounds. About 7,600 (2.4%) were called active. The shares of active, inactive and inconclusive entries below differ from those in the screen. The call rests on the fitted dose curve; in most records, active means well fitted activation curve with a large enough effect; inconclusive means small, poorly fitted or top-dose-only effect; inactive means no such curve, though single readings can be large or run the other way. A potency beside an inconclusive call is a rough fit, not a confirmed value.

Assay: qHTS Assay for NPC1 Promoter Activators; further: nearly all actives have a fitted effect of over 60% in size;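 on activation: reporter is driven by a mutant NPC1 promoter; % of control where 0% means no effect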
Settings: Huh7 NPC1 promoter luciferase reporter, 24 h; series mostly up to 9.22 µM; activation: at the top concentration
In short: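 Huh7 cells stably carrying NPC1 promoter–luciferase, plated in Opti-MEM with 10% FBS for 2 h, were exposed to compound in DMSO for 24 h at 37 °C; luciferase reagent was added for 10 min and luminescence read.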
Potency means the concentration at half of the fitted maximal effect; tags describe the fitted curve by direction and shape.

Potency, inconclusive:
Cc1ccc(N=Nc2ccc(O)cc2)c(Br)c1 3.98 µM [activator, single point], COCn1c(COc2ccccc2)nc2ccccc21 3.16 µM [activator, partial curve], COc1ccc(NC(=O)NCCN2C(=O)C3C4C=CC(C4)C3C2=O)cc1 (stereo unspecified) 5.62 µM [activator, single point], COc1ccccc1C(=O)NNC(=O)c1cccc(O)c1 3.98 µM [activator, single point], COc1ccc(N2CCN(C(=O)NCc3ccc(OC)c(OC)c3)CC2)cc1 6.31 µM [activator, single point], Cc1cnc(C(=O)Nc2ccc3c(c2)CCC3)cn1 1 µM [activator, single point], CC(=O)c1ccc(NCCC(=O)c2ccccc2)cc1 1.58 µM [activator, partial curve], O=C(c1ccc(Cl)cc1)N1CCCCC(Sc2nnc(-c3ccc4c(c3)OCO4)o2)C1=O (stereo unspecified) 0.0891 µM [activator, full curve, poor fit], COc1ccc2c(c1)CC/C2=N\NC(=O)c1ccccc1 3.16 µM [activator, partial curve], CCCOP(=O)(c1ccc(N(C)C)cc1)C(O)c1cccnc1 (stereo unspecified) 1.12 µM [activator, single point], Cc1cc2nc(-c3ccc(SCc4ccccn4)nc3)[nH]c2cc1C 3.16 µM [activator, single point], CC(C)COc1ccc(C(=O)Nc2ccc(SC(F)F)cc2)cc1 3.55 µM [activator, partial curve], CCOc1ccc(NC(=O)N2CCc3ccccc3C2)cc1 3.16 µM [activator, partial curve], S=C(NCCc1ccccc1)N1CCc2ccccc2C1 3.55 µM [activator, single point], CCCCN1CCc2c([nH]c3ccccc23)C1=O 2.82 µM [activator, partial curve], Cc1cc2nccc(-c3ccc(Cl)cc3Cl)n2n1 6.31 µM [activator, single point], CC(=O)N1CCN(C(=O)CCNS(=O)(=O)c2ccccc2)CC1 3.16 µM [activator, single point], Cc1ccccc1CN1CCC(n2nccc2NC(=O)c2ccc3c(c2)OCO3)CC1 4.47 µM [activator, partial curve], C=CCn1c(C)cc(C2=NNC(=NC(C)(C)C)SC2)c1C 0.316 µM [activator, full curve], Cn1c(/C(C#N)=C(\O)c2ccc([N+](=O)[O-])s2)nc2ccccc21 3.16 µM [activator, single point], Cc1ccc(NC(=S)NC(=O)c2ccc(Br)o2)c(C)c1 3.16 µM [activator, single point], O=C(CCNS(=O)(=O)c1cccs1)N1CCCCCC1 3.16 µM [activator, single point], COc1ccc(/C(C)=N/NC(=O)c2ccccc2OCc2ccccc2)c(OC)c1 3.98 µM [activator, single point], O=C(N/N=C/c1cc(Br)cs1)c1c[nH]c2ccccc12 2.82 µM [activator, partial curve], CC(=O)c1c(C)[nH]c(C(=O)NCCc2c[nH]c3ccccc23)c1C 3.16 µM [activator, single point], Cc1cc(C)n(CCN(C)Cc2nc(Cc3ccccc3F)no2)n1 0.562 µM [activator, full curve], COc1ccc(-c2noc(-c3cccc(Cl)c3)n2)cc1OC 3.55 µM [activator, single point], COC(=O)c1ccc(OCC(=O)c2cccc(OC)c2)cc1 2 µM [activator, partial curve], Nc1c2c(=O)oc(-c3ccccc3)cc2nn1-c1ccccc1 0.794 µM [activator, full curve], CNc1nnc(SCC(=O)c2cc(C)n(C3CC3)c2C)s1 3.16 µM [activator, partial curve], CN(CC1CCCCO1)C(=O)c1cc(COc2ccc(F)cc2Cl)on1 (stereo unspecified) 3.55 µM [activator, single point], CCc1ccc(C(=O)CCC2CCCCC2=O)cc1 (stereo unspecified) 3.55 µM [activator, single point], Cn1c(-c2ccco2)nc2cc3ccccc3cc21 5.62 µM [activator, single point], Clc1ccc(CSc2ccc(-c3ccccn3)nn2)cc1 3.55 µM [activator, single point], Cc1ccc(Cn2ccc(C3CC3)n2)cc1 3.55 µM [activator, single point], O=C1N/C(=N\N=C\c2ccc3ncccc3c2)SC1Cc1ccc(SC(F)F)cc1 (stereo unspecified) 2.82 µM [activator, partial curve], CCCC(=O)Nc1nnc(-c2ccco2)s1 3.55 µM [activator, single point], NC(=O)CSc1nnc(NC(=O)C23CC4CC(CC(C4)C2)C3)s1 4.47 µM [activator, partial curve], OCCSc1nnc(Nc2ccccc2)s1 5.62 µM [activator, single point], C/C(=N\NC(=O)c1cc(C(C)C)[nH]n1)c1ccncc1 3.16 µM [activator, single point], CC(=O)c1ccc(Nc2nc(C)cc(C)n2)cc1 3.16 µM [activator, partial curve]

Potency, active:
CSc1ncc(-c2ccc(Cl)cc2)[nH]1 3.16 µM, CC(C)n1cnc2cc(NCc3ccccn3)ccc21 1.78 µM, CC1CCc2sc(C(=O)NCC3CCCO3)cc2C1 (stereo unspecified) 2.82 µM, CCOC(=O)c1c(C)[nH]c(N=Nc2ccc(C)cc2)c1C 1 µM, COc1ccc(/C=C/C(=O)NC(=S)N2CCN(c3ccccc3OC)CC2)cc1 3.98 µM, O=C(COc1ccccc1)Nc1nccs1 1 µM, O=C(Nc1ccc2oc(-c3ccccc3)nc2c1)c1ccco1 1.78 µM, Cc1cccc(NC(=O)c2c(O)c3ccccc3n(C)c2=O)c1 2.82 µM, CC(C)CN=CC1=C(O)c2ccccc2C1=O 1.78 µM, CCc1ccc(C2=NN(S(C)(=O)=O)C(c3cccs3)C2)cc1 (stereo unspecified) 1 µM, O=C(NNC(=S)Nc1ccc(Br)cc1Cl)c1ccco1 3.55 µM, O=C(O)c1cccc(N/N=C/c2sc(N3CCOCC3)nc2-c2ccccc2)c1 3.98 µM, CSc1nnc(NC(=O)c2ccc3c(c2)OCO3)s1 0.224 µM, COc1ccc(Cn2c(-c3ccco3)nc3oc4cc(OC)ccc4c(=O)c3c2=O)cc1 3.16 µM, Nc1nc2ccc(C(=O)Nc3ccccc3)cc2s1 3.55 µM, CC(C)NC(=O)c1ccc2c3n(nc2c1)-c1ccccc1CO3 0.282 µM, CC(=O)c1c(C)[nH]c(C2=NNC(=NC(C)(C)C)SC2)c1C 1.78 µM, O=C(CSc1nc(-c2ccccc2)ns1)N1CCOCC1 2.51 µM

activation, inactive:
COCCNC(=S)N(CCc1c(C)[nH]c2ccccc12)Cc1cccnc1 0.539%, Cc1nc(C)c(-c2nnc(-c3ccc(C(C)(C)C)cc3)o2)cc1C(=O)NN -4.74%, COCCn1cnc2c1c(=O)n(CC(=O)O)c(=O)n2Cc1ccccc1 -0.643%, CN1CCCC1CCNc1ccc2oc3ccccc3c(=O)c2c1 (stereo unspecified) 17.5%, O=C(/C=C/Nc1cccc([N+](=O)[O-])c1)c1cccs1 21.1%, O=c1[nH]c2ccccc2nc1Cc1ccccc1 0.978%, S=c1[nH]nc(-c2ccccc2Br)n1Cc1ccccc1 5.41%, COc1ccc(N(C(=O)C(C)C)S(=O)(=O)c2ccc3ccccc3c2)cc1 2.47%, Cc1ccc(-c2nc(C=Nc3ccccc3)c(O)o2)cc1 17.6%, CC(C)(C)NS(=O)(=O)c1ccc(CCC(=O)Nc2ccc3c(c2)OCO3)cc1 1.55%, O=C(NCc1cccc2[nH]ccc12)C1CCC(=O)N(CCc2ccc(Cl)cc2)C1 (stereo unspecified) 0.094%, CCS(=O)(=O)N1CCC(C(=O)Nc2ccccc2OC)CC1 -2.45%, Cc1cc(=O)oc2cc(NC(=O)C(C)Oc3ccccc3)ccc12 (stereo unspecified) 2.89%, CNC(=S)N/N=C/c1ccc(N2CCOCC2)s1 2.1%, O=C1N(c2ccccc2)C[C@@H]2C[C@@H](c3cccs3)N3CCC[C@@]123 -22.8%, Cn1cnc(S(=O)(=O)N2CCN(C(c3ccc(F)cc3)c3ccc(F)cc3)CC2)c1 1.96%, CCOC(=O)N1CCC(N2C(=O)c3ccc(C(=O)NCCOC)cc3C2=O)CC1 -3.43%, CC(=O)c1cccc(CN2CCC(C(=O)Nc3cccc(-c4ccn[nH]4)c3)CC2)c1 7.44%, COc1cccc(NC(=O)N2CCCC2C(=O)NC23CC4CC(CC(C4)C2)C3)c1 (stereo unspecified) -0.381%, CCc1cc(C(=O)NNC(=S)Nc2cc(C)ccc2C)cs1 9.99%, O=c1c2ccccc2nc2n1C(CBr)CN2 (stereo unspecified) -4.95%, O=C(CN1C(=O)COc2ccc(Cl)cc21)N1CCCCC1 -4.91%
